The values below come from the supplement of paper PMC11417369.

This is one part of the list.

This test has as its system PfAP2-HC AP2 domain (GST-tagged). The test can be described thus: gcPBM binding intensity (ln(normalized median fluorescence intensity)); higher = stronger DNA binding. An outline of the steps:
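Binding intensity values are the highest Masliner-normalised natural-log median intensity among replicate spots of either probe orientation. The binding step lasted 1 h in 1× PBS with 1% milk, 0.2 mg/ml BSA, 0.5% salmon testes DNA and 0.03% Triton X-100, using GST-tagged P. falciparum DNA-binding domains expressed in E. coli on an Agilent 4 × 180k array of primer-extended double-stranded 36-bp intergenic genomic probes plus negative controls. Alexa488 anti-GST antibody and a 488 nm scan detected bound protein.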
Take “AATTTAATTTTTTCGTGTACTTATATAGGAGGTTTT [XGTACX_site8310]”: the “gcPBM binding intensity (ln)” value came out at 9.6. Then “TTTCTTATCAACCTTTTTTTTTTTTTTTTATTCTTA [TGCATGCA_negctrl_site162]”, with 9.49. With “CCCATATTATAGGTGTGTACATAAAAGTATATATAA [XGTACX_site3629]” the figure was 9.75; with “AGAAGAAATATGTAAAAAATTTTATATTCACACACA [GTGCAC_negctrl_site441]”, 10.1. Take “TTTATATATAATGTTGCATGTCAAATTTGTATATGG [TGCATGCA_site246]”: the “gcPBM binding intensity (ln)” value amounted to 9.55. “TGTAGACATTAATGTAGTACAATATATATATATATT [XGTACX_site8608]”: the “gcPBM binding intensity (ln)” value was found to be 10.1. Then “TGTTCTTATACTAATAGTACTTTTAGGTACTATAAA [XGTACX_site2954]”, with 9.53; and “CCATAAAAAGGTACATGTACAAAAAGCAAAAATATG [XGTACX_site5543]”, with 10.2; and “ATATTTTTCCAACATCGTACATTATGAGTCAAAATT [XGTACX_site993]”, with 9.48.

As for “AATGTAAAACTAATATGTACATATCTCTAAAGAAAT [XGTACX_site8429]”, the “gcPBM binding intensity (ln)” value was found to be 9.71.

“CGTACTAACATAAAGACACACACCACATATAATAAA [CACACA_site3603]”: the “gcPBM binding intensity (ln)” value came to 10.3. Consider ATTGTCTTCCTTCTGGTGCGATGTATAGGTAAAGAT, for which the “gcPBM binding intensity (ln)” value worked out at 9.57. With “AACTCATCTTATAATTGTACATATTTATAAAAAGTA [XGTACX_site6522]” the figure was 9.45; with “TGTAGAAATGGGTGCACACACATATATAATATATAT [CACACA_site2507]”, 10.1; with “AAAAAAAAAAAAAAAAAAAAAAAAAAAAAATATATA [GTGCAC_negctrl_site6]”, 9.39.

Take “TTAGGGATGCTGAAATGTACACATTTAAATTATATA [XGTACX_site3000]”: the “gcPBM binding intensity (ln)” value turned out to be 9.67. Regarding “GTATATATATATATATATATATATATATATATATAT [CACACA_negctrl_site609]”, the “gcPBM binding intensity (ln)” value was determined as 9.41. Then “TCTCCATCTTATGAGACATGCACTTTTTATTTAATA [TGCATGCA_site121]”, with 9.67; and “TGTGTATACTTGTGTATACCAAATTAAAGACGCTTT [CACACA_negctrl_site1359]”, with 9.56; and “AAAAAATAAAAAAGGTGGTCATGTCACAAATACTTT [XGTACX_site7454]”, with 9.82. Then “TAAAAGTGATATGTTCGTACGTATTTATATGTAATA [XGTACX_site211]”, with 9.62.

In the case of “TTTTTCTTTTTTTGGGGTACAGGGAAATCTATATTT [XGTACX_site7025]”, the “gcPBM binding intensity (ln)” value stood at 9.67.

On to “TCTTAATTTTTGAAGGTACACACTAATATATTAAAT [CACACA_site1191]”, for which the “gcPBM binding intensity (ln)” value came out at 9.53.

Turning to “TTGTGTAAATGTTAAGTGCATTTGGTAAAATATAAA [GTGCAC_site9699]”, the “gcPBM binding intensity (ln)” value was 9.62.

“AAAAAAAAAAAAAAAACACACATACCCATATATTTT [CACACA_site6013]”: the “gcPBM binding intensity (ln)” value was 9.85.

Consider ATGATATGCAATTTAGTGCATAACAAAATTGGTATA, for which the “gcPBM binding intensity (ln)” value is 9.66. On to “GGATATATTTTATGTACACACATATATAACGGATAT [CACACA_site4847]”, for which the “gcPBM binding intensity (ln)” value was found to be 9.85. Regarding “TTTTAAAAAAATAAATAAATAGAAAAAAAAAATAAA [TGCATGCA_negctrl_site579]”, the “gcPBM binding intensity (ln)” value worked out at 9.53.

As for “TATTATGACTTAAGTTGTACTGTTGAAAGAAGAAAA [XGTACX_site2985]”, the “gcPBM binding intensity (ln)” value came to 9.51. For the sequence “ATAATCCTTAAACACACACACACACTAATAAATAAA [CACACA_site8052]”, the “gcPBM binding intensity (ln)” value was determined as 10.8. Turning to “ATAAAAATTAAAGAATGTACACATATAATATATGTA [XGTACX_site8735]”, the “gcPBM binding intensity (ln)” value came to 9.63.

Regarding “AAAAGTTATAGACACACACACATATAAATATAGATT [CACACA_site6617]”, the “gcPBM binding intensity (ln)” value turned out to be 10.4.

As to “TTGTTTCCTTAATATTCACACACATATATATAATAT [CACACA_site8553]”, the “gcPBM binding intensity (ln)” value worked out at 10.1. As for TATAAATGTATACAAGTGCATATTATTCACACATAA, the “gcPBM binding intensity (ln)” value came out at 9.72. “GAAATTATTATATAAACACACATTTATTTTATTTTA [CACACA_site1957]”: the “gcPBM binding intensity (ln)” value was 9.67. Then “GTATTATACCATAATGCATGTTAACTTCAAAAGAAA [TGCATGCA_site839]”, with 9.54; and “CGTATAAATAAATACACACACATATAAATATGTAAA [CACACA_site6236]”, with 9.99. As for “TAATATATTGTAGATGCATGCATTAACTATTACAAA [TGCATGCA_site190]”, the “gcPBM binding intensity (ln)” value stood at 9.75.

With “TATCAATGGAAAATATATATTTGTATATATGTAATA [XGTACX_negctrl_site257]”, the “gcPBM binding intensity (ln)” value came out at 9.54. “TATAAAAATAATATTACACACATGTAAAATGTCGGT [CACACA_site3264]”: the “gcPBM binding intensity (ln)” value came out at 9.91. Then “ACACATGACATCCGTTGTACAATCATCATAAAAATG [XGTACX_site5397]”, with 9.8. With “AGCATTTATGAAAAATGTACACACATCAAATGCTTA [XGTACX_site8749]” the figure was 9.63. Take “AAGCTACACATAGATTATTATTAATTTAATGTATAT [CACACA_negctrl_site548]”: the “gcPBM binding intensity (ln)” value stood at 9.53. In the case of “TACGTGAAATTATATACACACATAAATATGTCTGTA [CACACA_site3122]”, the “gcPBM binding intensity (ln)” value stood at 9.85.

In the case of “ACAAGCTTTCATAAGGTGCAATGATTTAACAAAAAA [GTGCAC_site9726]”, the “gcPBM binding intensity (ln)” value was determined as 9.48. Then AATTATTAGCGTGGTGTGCACAAAATTATGGACACA, with 10.1; and “TTTCCCTTAAATTAATGTACATAAATTGAAAATACC [XGTACX_site1602]”, with 9.34. With “TATATATTATACACGTGTACACATTATAACAATATA [XGTACX_site7799]” the figure was 9.78; with “TAAAATTTTTTTGTTTGTACATATATATATATAATA [XGTACX_site5609]”, 9.53; with “AAAAAAAAAAAACACACACACAAAAAAAAATATATA [CACACA_site1105]”, 11.3. With “AAAAAAATAAATAAATACATACATATATATATGTAT [GTGCAC_negctrl_site510]”, the “gcPBM binding intensity (ln)” value is 9.82. Then “TTGCCCCAGGAGTTCACACACATAATAGATTGTCAC [CACACA_site726]”, with 10.1; and “AGCAACCCCCTAGCTACACACATATAGATATATATA [CACACA_site951]”, with 9.91; and “TATTCTATAAATATATTTTTTTAATTTTTTATTTTA [CACACA_negctrl_site307]”, with 9.42.

Turning to “AGGTGTATCATAAAATGTACATACATACATACATAA [XGTACX_site4479]”, the “gcPBM binding intensity (ln)” value turned out to be 9.71.

For the sequence “AAAATGTGCTTTTCAGTGCAATTTTTTTTGTAATAA [GTGCAC_site9566]”, the “gcPBM binding intensity (ln)” value came to 9.33. With “TTGTAATTCATTCAAATATAAAATAAATAAATATGA [CACACA_negctrl_site349]” the figure was 9.29; with “TATTATTATTTTTTATGTACTAACGACAAAAATATT [XGTACX_site252]”, 9.52; with “TATGTAAAAAGAGAAAAAAAAAAGAACGATAATTTC [CACACA_negctrl_site946]”, 9.58.

Take “ATATAAGAATTTAAGAGTACATTCACTTCAAATTTA [XGTACX_site2115]”: the “gcPBM binding intensity (ln)” value was determined as 9.48. For “ATATAATATATTTTCACACATATTTTATGATGATAA [CACACA_site5614]”, the “gcPBM binding intensity (ln)” value amounted to 9.46. Then “ATAACATAACATAATACACACATATAAAAAAGAAAT [CACACA_site3028]”, with 10.1. Turning to “AAATTTAATTTTATATCACACATTAAATTTTAATGG [CACACA_site4251]”, the “gcPBM binding intensity (ln)” value was found to be 9.53.

For the sequence “AAAAAAAAAAAAAAAGGTACAGTAAAAAATTCCTCT [XGTACX_site5947]”, the “gcPBM binding intensity (ln)” value stood at 9.48.

Regarding “AAAAAAATATATATATATATATATATATATATATAT [TGCATGCA_negctrl_site7]”, the “gcPBM binding intensity (ln)” value came out at 9.35. As to “AAATATAATAATATATGTACATATATATATATATAT [XGTACX_site6980]”, the “gcPBM binding intensity (ln)” value was found to be 9.59. With “TATGTATTAAATTTTACACACATGATTCTCTATATG [CACACA_site8720]” the figure was 10.1; with “TATACATATTATATATGTACACATATTATATGTATA [XGTACX_site5851]”, 9.57; with “AATTTAAAAGCTTGTGGTACTTTTGCTCTTCCTTTG [XGTACX_site3148]”, 9.65. Then “TCAACAAATAAACTTTGTACATATATACAAAATATA [XGTACX_site4447]”, with 9.53.

Turning to “ATACAAAAAAGAAGGACACACAGAAGTAACATGTTA [CACACA_site3074]”, the “gcPBM binding intensity (ln)” value was 10.2.

“ATGAATTATATATTATGTACATATAATTAAAATATA [XGTACX_site7140]”: the “gcPBM binding intensity (ln)” value is 9.58. With “TTTAAAAAAAAAAAAAAAAATTAAATGAATTATTAA [CACACA_negctrl_site1121]” the figure was 8.95; with “TAACATGATATATAATGTACATATAAGATATTTATA [XGTACX_site4383]”, 9.7.

In the case of “CGTGGGAGCGGACACACACACACACCCATATATATA [CACACA_site4340]”, the “gcPBM binding intensity (ln)” value is 10.4. With “ACAAATAAATAAAAATGTACAAATGAATACATCTTA [XGTACX_site3780]” the figure was 9.64; with “TTAAAAGATATTACATGTACATATTCAATATATGTA [XGTACX_site5895]”, 9.53. With “TTTTTTTAAAAAAACAAAAAAAAAAAAAATATAAAA [TGCATGCA_negctrl_site511]” the figure was 9.06. With “TACATCGGTATATAAACACACAACAAAAATGCTTAC [CACACA_site5983]” the figure was 9.87; with “AAAATAATTAAAAAAAGTACTCGTAATATAAATATA [XGTACX_site4967]”, 9.85. Regarding “ATATTTTGTAATATTTGTACATATATTATACATATA [XGTACX_site963]”, the “gcPBM binding intensity (ln)” value amounted to 9.72. Then “AATAATGTATAATGATGTACAAAAAAGGAAGACATA [XGTACX_site2474]”, with 9.93. Then TTTTTTTTGCGTACAGTGCAAATTTATTTACTATTC, with 9.74. With “TACATTTATAATAATACACACATAAATTTACATTTT [CACACA_site3463]”, the “gcPBM binding intensity (ln)” value turned out to be 9.82.

“TATGAAAATTAAGTTTGTACACAAGTGGAAAAAAAA [XGTACX_site6129]”: the “gcPBM binding intensity (ln)” value was found to be 9.87. Then “AAAAAAAAAAAAAAAAAAAAAAAAAAAAAAAAAAAT [CACACA_negctrl_site882]”, with 9.42. In the case of “TTTGTTATTTATTAGTGTACAAAAAAGCATTTCAAA [XGTACX_site8729]”, the “gcPBM binding intensity (ln)” value came out at 9.28. With “AAATTAAATAAATTTACACACTAAAAGTTACCTATA [CACACA_site6623]” the figure was 9.65; with “ATATAAAGAAATTAATTTTTCAACAATAAAAATATA [CACACA_negctrl_site1262]”, 9.35.
